Source: article PMC4336329 (PLoS ONE, 2015)
Out of some 310,000 compounds screened, about 14,000 (4.5%) showed an effect of 50% or more. The effect is printed as a negative number. The list shows a part of the results.

Molecular target: human ether-à-go-go-related gene (hERG) potassium channel (human, UniProt Q12809)
Experiment: primary screen, population patch clamp on CHO cells stably expressing hERG
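Also: peak tail current of the secondary pulse compared with the same well before compound.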

human ether-à-go-go-related gene (hERG) potassium channel, sequence (Q12809 whole entry, looked up): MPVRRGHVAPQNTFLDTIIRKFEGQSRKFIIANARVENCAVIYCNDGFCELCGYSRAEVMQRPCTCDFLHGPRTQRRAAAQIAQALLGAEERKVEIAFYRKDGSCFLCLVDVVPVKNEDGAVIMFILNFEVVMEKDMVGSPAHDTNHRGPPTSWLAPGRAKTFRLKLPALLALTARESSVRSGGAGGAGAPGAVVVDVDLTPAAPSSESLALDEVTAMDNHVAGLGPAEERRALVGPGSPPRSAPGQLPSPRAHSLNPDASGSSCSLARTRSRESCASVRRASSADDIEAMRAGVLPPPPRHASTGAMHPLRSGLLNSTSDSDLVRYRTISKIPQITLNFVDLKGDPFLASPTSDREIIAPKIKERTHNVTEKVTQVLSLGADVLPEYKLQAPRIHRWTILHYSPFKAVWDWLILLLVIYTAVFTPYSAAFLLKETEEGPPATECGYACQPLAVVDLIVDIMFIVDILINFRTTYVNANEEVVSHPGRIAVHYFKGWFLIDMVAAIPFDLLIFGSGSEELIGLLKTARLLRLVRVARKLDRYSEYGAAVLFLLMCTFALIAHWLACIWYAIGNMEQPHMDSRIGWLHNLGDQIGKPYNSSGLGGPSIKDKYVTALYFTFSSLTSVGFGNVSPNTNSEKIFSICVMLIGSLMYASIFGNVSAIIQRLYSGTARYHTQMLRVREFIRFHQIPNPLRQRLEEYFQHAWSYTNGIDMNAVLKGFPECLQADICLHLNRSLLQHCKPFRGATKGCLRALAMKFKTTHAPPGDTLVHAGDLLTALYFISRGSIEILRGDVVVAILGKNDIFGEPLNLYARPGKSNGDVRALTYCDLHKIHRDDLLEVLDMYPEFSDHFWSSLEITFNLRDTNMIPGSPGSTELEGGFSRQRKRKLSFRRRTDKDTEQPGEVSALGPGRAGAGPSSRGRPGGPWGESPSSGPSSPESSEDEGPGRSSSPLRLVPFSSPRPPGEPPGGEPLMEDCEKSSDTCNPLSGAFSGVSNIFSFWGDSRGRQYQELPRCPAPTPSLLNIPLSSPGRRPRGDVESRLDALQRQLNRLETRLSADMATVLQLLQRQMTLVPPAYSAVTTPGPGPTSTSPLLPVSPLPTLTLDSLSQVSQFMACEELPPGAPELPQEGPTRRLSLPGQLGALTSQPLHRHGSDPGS

| Compound | hERG current change (%, negative = inhibition) at 10uM |
| --- | --- |
| O=C1c2ccccc2C(=O)N1OCc1cccc(Cl)c1 | 0.197% |
| Cc1[nH]cnc1CSCc1ccc(F)cc1.Cl | -28.5% |
| Cc1sc2nc(CSCC(=O)NC3CCCCC3)[nH]c(=O)c2c1C | -12.7% |
| O=C(Cc1ccc(-c2ccccc2)cc1)Nc1ccccc1 | 19.1% |
| CCn1c(=O)n(CC)c2cc(N3CCCC3)c(NC(=O)c3ccc(OC)c(Br)c3)cc21 | 1.73% |
| CCCN(C(=O)c1ccc([N+](=O)[O-])c(C)c1)c1c(N)n(Cc2ccccc2)c(=O)[nH]c1=O | -0.221% |
| O=C(COC(=O)c1ccc(O)cc1)NCc1ccc2c(c1)OCO2 | -6.6% |
| O=C(Oc1ccccc1)N1CCOCC1 | 18% |
| CCCn1c(=O)c2ccccc2n2c(SCc3nc4ccccc4s3)nnc12 | -9.05% |
| CCCCn1c(N)c(N(CC)C(=O)C2CCCC2)c(=O)[nH]c1=O | 8.11% |
| CCCCN1C(N)=NC[C@@H]1c1ccccc1 | -2.61% |
| COc1ccccc1C(=O)Nc1cc(Cl)ccc1-n1cncn1 | 0.114% |
| O=S(=O)(c1cccc2nsnc12)N1CCCCC1 | -4.94% |
| CCCNC(=O)C(Cc1ccccc1)NC(=O)Cc1ccccc1 (centres unmarked) | 10% |
| O=C1C=C(c2cc(F)ccc2F)C[C@@H](c2ccc(Cl)cc2)C1 | 12.2% |
| Cc1ccc2cc(CCNS(=O)(=O)c3ccc(Br)cc3)c(=O)[nH]c2c1C | -9.41% |
| Cc1ccc(Cn2ncc3c(N4CCN(Cc5ccc(Cl)cc5)CC4)ncnc32)cc1 | -5.3% |
| CCOC(=O)N1CCN(c2ncnc3c2oc2nc(C(C)C)c4c(c23)CCC4)CC1 | -7.31% |
| CC(C)Cc1cc(C(=O)N2CCCC(CCC(=O)N(C)CCc3ccccn3)C2)no1 (centres unmarked) | -5.77% |
| O=C(O)CCN1C(=O)c2ccc(Oc3ccc([N+](=O)[O-])cc3)cc2C1=O | 4.85% |
| O=C(O)C1CCC(=O)N1C(=O)OCc1ccccc1 (centres unmarked) | 17.4% |
| Cc1cccc(NC(=O)CN(c2ccc(F)cc2)S(C)(=O)=O)c1 | 13.2% |

| Compound | hERG current change (%, negative = inhibition) at 10uM |
| --- | --- |
| CCN(CC(=O)Nc1cc(C)on1)CC(=O)Nc1ccccc1C(F)(F)F | 13.7% |
| O=C(CN1C(=O)CSc2ccc(S(=O)(=O)N3CCOCC3)cc21)NCCCN1CCc2ccccc2C1 | -66.3% |
| O=C(Cc1ccc(-c2ccccc2)cc1)NC1CCCC1 | 23.3% |
| CCN(c1ccc(NC(=O)COC(=O)/C=C/c2cccs2)cc1)C(C)C | 11.7% |
| CC(C)c1nc2oc3c(NCC4CCCO4)ncnc3c2c2c1CCC2 (centres unmarked) | -27.4% |
| CSc1ccc(CN2CCC(CO)(CCOc3ccccc3)CC2)cc1 | -78.4% |
| O=C(NC1C/C(=N/O)c2cc3c(cc21)OCO3)C(F)(F)F (centres unmarked) | 21.5% |
| O=C1CCCC2=C1C(c1ccc(O)c(Br)c1)C1=C(CCCC1=O)N2c1ccccc1 | -33% |
| COc1ccccc1CC(=O)Nc1ccc(S(=O)(=O)N(C)C2CCN(C)CC2)cc1 | -6.79% |
| COc1ccc(N2CCN(C(=O)CN(c3cccc(Br)c3)S(C)(=O)=O)CC2)cc1 | -18.7% |
| O=C(CNC(=O)Cc1ccccc1)NCC(=O)N1CCN(C(c2ccccc2)c2ccccc2)CC1 | 13.1% |
| Cc1ccc(-c2nnc(N3CCCCCC3)c3ccccc23)cc1 | 1% |
| Cc1ccc(OCc2nc(C#N)c(NCc3ccco3)o2)cc1 | -24.4% |
| COc1ccc(/C=C/C(=O)NCCCn2ccnc2)cc1 | -30.9% |
| O=C(NC1CCCCCCC1)C1CCN(c2nc3ccccc3o2)CC1 | -17.1% |
| Cl.Nc1nc(-c2ccc3c(c2)OCCO3)cs1 | 19.4% |
| Cc1ccc(S(=O)(=O)N/N=C\c2cn(-c3ccccc3)nc2-c2ccccc2)cc1 | 4.8% |
| O=C(COC(=O)CSc1ccc(F)cc1)NCC1CCCCC1 | 6% |
| COC(=O)c1ccc(NC(=O)CN(c2ccc(C)cc2)S(=O)(=O)c2c(C)n[nH]c2C)cc1 | 8.69% |
| COc1ccc(N(CC(=O)N2CCN(c3cc(C)ccc3C)CC2)S(=O)(=O)c2c(C)noc2C)cc1 | 15.9% |
| Br.CCOc1ccc2c(c1)nc(SCC(=O)c1ccc(Br)s1)n2C | 19.6% |
| CCCN(C(=O)c1ccc(N(C)S(=O)(=O)c2ccc(C)cc2)cc1)C1CCS(=O)(=O)C1 (centres unmarked) | -20.8% |
